US20110060124A1, “HLA-BINDING PEPTIDES, PRECURSORS THEREOF, DNA FRAGMENTS AND RECOMBINANT VECTORS THAT CODE FOR THOSE PEPTIDE SEQUENCES” (priority 2004, published 2011)
Peptide text beside a SMILES is read from it.

Molecular target: HLA-A2 type molecule, product of the HLA-A*0201 gene (Homo sapiens, UniProt P04439, D140Y/D185E/D98H/E176V/E277Q/G131W/G231S/I119V/I121R/I166T/I218V/L300P/L318F/N151K/N90K/P208A/P217A/Q86G/Q94H/R138H/R169H/T345S)
Assay: biochemical

SMILES | Kd
CC(C)C[C@H](NC(=O)[C@@H](N)CCCCN)C(=O)N[C@@H](CC(C)C)C(=O)N1CCC[C@H]1C(=O)N[C@@H](CCCNC(=N)N)C(=O)N[C@@H](CC(C)C)C(=O)N1CCC[C@H]1C(=O)NCC(=O)N[C@H](C(=O)O)C(C)C [compound 124] (H-KLLPRLPGV-OH) | 196 nM
CC[C@H](C)[C@H](NC(=O)[C@H](C)N)C(=O)N[C@@H](CC(C)C)C(=O)N[C@@H](CO)C(=O)N1CCC[C@H]1C(=O)NCC(=O)N[C@@H](C)C(=O)N[C@@H](CC(C)C)C(=O)N[C@H](C(=O)O)C(C)C [compound 131] (H-AILSPGALV-OH) | 571 nM
CC[C@H](C)[C@H](NC(=O)[C@H](CC(C)C)NC(=O)[C@@H](N)CO)C(=O)N[C@@H](CCCNC(=N)N)C(=O)N[C@H](C(=O)N1CCC[C@H]1C(=O)N[C@@H](Cc1ccc(O)cc1)C(=O)N[C@@H](Cc1ccccc1)C(=O)N[C@H](C(=O)O)C(C)C)C(C)C [compound 132] (H-SLIRVPYFV-OH) | 1370 nM
CC[C@H](C)[C@H](NC(=O)[C@H](Cc1c[nH]c2ccccc12)NC(=O)[C@H](CC(=O)O)NC(=O)[C@H](Cc1c[nH]c2ccccc12)NC(=O)[C@@H](NC(=O)[C@@H](N)CC(=O)O)C(C)C)C(=O)N[C@@H](CS)C(=O)N[C@H](C(=O)N[C@H](C(=O)O)C(C)C)[C@@H](C)O [compound 133] (H-DVWDWICTV-OH) | 10500 nM
CC[C@H](C)[C@H](NC(=O)[C@@H](N)C(C)C)C(=O)N1CCC[C@H]1C(=O)N[C@@H](C)C(=O)N[C@@H](CO)C(=O)NCC(=O)N[C@@H](CC(=O)O)C(=O)N[C@H](C(=O)N[C@H](C(=O)O)C(C)C)C(C)C [compound 134] (H-VIPASGDVV-OH) | 574 nM
CC(C)C[C@H](NC(=O)[C@H](C)NC(=O)[C@@H](N)CCCNC(=N)N)C(=O)N[C@@H](C)C(=O)N[C@@H](Cc1c[nH]cn1)C(=O)NCC(=O)N[C@H](C(=O)N[C@@H](CCCNC(=N)N)C(=O)N[C@H](C(=O)O)C(C)C)C(C)C [compound 135] (H-RALAHGVRV-OH) | 5200 nM
CC(C)C[C@H](N)C(=O)N[C@@H](CO)C(=O)N[C@@H](CC(=O)O)C(=O)NCC(=O)N[C@@H](CO)C(=O)N[C@@H](Cc1c[nH]c2ccccc12)C(=O)N[C@@H](CO)C(=O)N[C@H](C(=O)N[C@H](C(=O)O)C(C)C)[C@@H](C)O [compound 136] (H-LSDGSWSTV-OH) | 598 nM
CC[C@H](C)[C@H](NC(=O)[C@H](CCC(=O)O)NC(=O)CNC(=O)[C@@H]1CCCN1C(=O)[C@H](CO)NC(=O)[C@@H](N)Cc1ccc(O)cc1)C(=O)N[C@@H](CC(N)=O)C(=O)N[C@@H](CCCNC(=N)N)C(=O)N[C@H](C(=O)O)C(C)C [compound 141] (H-YSPGEINRV-OH) | 889 nM
CC(C)C[C@H](NC(=O)[C@H](CC(=O)O)NC(=O)[C@H](CCC(N)=O)NC(=O)[C@H](CC(=O)O)NC(=O)[C@@H](NC(=O)[C@H](CC(N)=O)NC(=O)[C@@H](NC(=O)[C@@H](N)Cc1ccc(O)cc1)[C@@H](C)O)C(C)C)C(=O)N[C@H](C(=O)O)C(C)C [compound 142] (H-YTNVDQDLV-OH) | 2100 nM
CSCC[C@H](NC(=O)[C@@H](N)CS)C(=O)N[C@@H](CO)C(=O)N[C@@H](C)C(=O)N[C@@H](CC(=O)O)C(=O)N[C@@H](CC(C)C)C(=O)N[C@@H](CCC(=O)O)C(=O)N[C@H](C(=O)N[C@H](C(=O)O)C(C)C)C(C)C [compound 146] (H-CMSADLEVV-OH) | 15500 nM
CC[C@H](C)[C@H](NC(=O)[C@H](CC(C)C)NC(=O)[C@H](CO)NC(=O)[C@H](C)NC(=O)[C@H](CCC(N)=O)NC(=O)[C@H](CC(C)C)NC(=O)[C@@H](N)C(C)C)C(=O)N[C@@H](CCCNC(=N)N)C(=O)N[C@H](C(=O)O)C(C)C [compound 149] (H-VLQASLIRV-OH) | 3440 nM
CC(C)[C@H](NC(=O)[C@@H]1CCCN1C(=O)[C@H](C)NC(=O)[C@H](C)NC(=O)[C@H](C)NC(=O)[C@H](CCC(=O)O)NC(=O)[C@H](C)NC(=O)[C@H](CCC(N)=O)NC(=O)[C@@H](N)CCCCN)C(=O)O [compound 150] (H-KQAEAAAPV-OH) | 3840 nM
CC(C)C[C@H](NC(=O)[C@@H](N)C(C)C)C(=O)N[C@@H](CC(=O)O)C(=O)N[C@@H](CC(=O)O)C(=O)N[C@@H](Cc1c[nH]cn1)C(=O)N[C@@H](Cc1ccc(O)cc1)C(=O)N[C@@H](CCCNC(=N)N)C(=O)N[C@@H](CC(=O)O)C(=O)N[C@H](C(=O)O)C(C)C [compound 152] (H-VLDDHYRDV-OH) | 308 nM
CC[C@H](C)[C@H](NC(=O)[C@@H](N)C(C)C)C(=O)N[C@@H](CC(C)C)C(=O)N[C@@H](CC(=O)O)C(=O)N[C@@H](CO)C(=O)N[C@@H](Cc1ccccc1)C(=O)N[C@@H](CCC(=O)O)C(=O)N1CCC[C@H]1C(=O)N[C@@H](CC(C)C)C(=O)O [compound 162] (H-VILDSFEPL-OH) | 4100 nM
CC(C)C[C@H](NC(=O)[C@H](Cc1c[nH]c2ccccc12)NC(=O)[C@@H](NC(=O)[C@H](CCCCN)NC(=O)[C@H](Cc1ccccc1)NC(=O)[C@H](CC(=O)O)NC(=O)[C@H](C)NC(=O)[C@H](CC(C)C)NC(=O)[C@@H](N)C(C)C)[C@@H](C)O)C(=O)O [compound 170] (H-VLADFKTWL-OH) | 962 nM
CC[C@H](C)[C@H](NC(=O)[C@H](Cc1c[nH]c2ccccc12)NC(=O)[C@H](CC(=O)O)NC(=O)[C@H](Cc1c[nH]c2ccccc12)NC(=O)[C@@H](NC(=O)[C@H](CC(=O)O)NC(=O)[C@H](CCCNC(=N)N)NC(=O)[C@H](CC(C)C)NC(=O)[C@@H](N)Cc1c[nH]c2ccccc12)C(C)C)C(=O)O [compound 179] (H-WLRDVWDWI-OH) | 2080 nM
